{"source": "paper PMC9911399", "about": "“Two distinct binding modes provide the RNA-binding protein RbFox with extraordinary sequence specificity”", "binders": {"B1": {"name": "UGUUGGG (DNA:RNA)", "RNA": "GGGAGACCGGAAUUCAGAUUGUCCUGUUGGGUUAAAUCCCGUCGUAGCCACCA", "DNA 1": "CAATCTGAATTCCGGTCTCCC", "DNA 2": "TGGTGGCTACGACGGGATT"}, "B2": {"name": "ACGAUCG (DNA:RNA)", "RNA": "B1 RNA with U25A, G26C, U27G, U28A, G29U, G30C", "DNA 1": "CAATCTGAATTCCGGTCTCCC", "DNA 2": "TGGTGGCTACGACGGGATT"}, "B3": {"name": "GAGGGAC (DNA:RNA)", "RNA": "B1 RNA with U25G, G26A, U27G, U28G, G30A, G31C", "DNA 1": "CAATCTGAATTCCGGTCTCCC", "DNA 2": "TGGTGGCTACGACGGGATT"}, "B4": {"name": "GGAUGUC (DNA:RNA)", "RNA": "B1 RNA with U25G, U27A, G30U, G31C", "DNA 1": "CAATCTGAATTCCGGTCTCCC", "DNA 2": "TGGTGGCTACGACGGGATT"}, "B5": {"name": "ACGCAUG (DNA:RNA)", "RNA": "B1 RNA with U25A, G26C, U27G, U28C, G29A, G30U", "DNA 1": "CAATCTGAATTCCGGTCTCCC", "DNA 2": "TGGTGGCTACGACGGGATT"}, "B6": {"name": "AAGUAAU (DNA:RNA)", "RNA": "B1 RNA with U25A, G26A, U27G, G29A, G30A, G31U", "DNA 1": "CAATCTGAATTCCGGTCTCCC", "DNA 2": "TGGTGGCTACGACGGGATT"}, "B7": {"name": "UUGGUAA (DNA:RNA)", "RNA": "B1 RNA with G26U, U27G, U28G, G29U, G30A, G31A", "DNA 1": "CAATCTGAATTCCGGTCTCCC", "DNA 2": "TGGTGGCTACGACGGGATT"}, "B8": {"name": "AUCAGGG (DNA:RNA)", "RNA": "B1 RNA with U25A, G26U, U27C, U28A", "DNA 1": "CAATCTGAATTCCGGTCTCCC", "DNA 2": "TGGTGGCTACGACGGGATT"}, "B9": {"name": "CUCACAU (DNA:RNA)", "RNA": "GGGAGACCGGAAUUCAGAUUGUCCCUCACAUUUAAAUCCCGUCGUAGCCACCA", "DNA 1": "CAATCTGAATTCCGGTCTCCC", "DNA 2": "TGGTGGCTACGACGGGATT"}, "B10": {"name": "CCUGUAU (DNA:RNA)", "RNA": "B9 RNA with U26C, C27U, A28G, C29U", "DNA 1": "CAATCTGAATTCCGGTCTCCC", "DNA 2": "TGGTGGCTACGACGGGATT"}, "B11": {"name": "CUAGGGG (DNA:RNA)", "RNA": "B1 RNA with U25C, G26U, U27A, U28G", "DNA 1": "CAATCTGAATTCCGGTCTCCC", "DNA 2": "TGGTGGCTACGACGGGATT"}, "B12": {"name": "UUACCUU (DNA:RNA)", "RNA": "B9 RNA with C25U, C27A, A28C, A30U", "DNA 1": "CAATCTGAATTCCGGTCTCCC", "DNA 2": "TGGTGGCTACGACGGGATT"}, "B13": {"name": "UCUUCGA (DNA:RNA)", "RNA": "B1 RNA with G26C, G29C, G31A", "DNA 1": "CAATCTGAATTCCGGTCTCCC", "DNA 2": "TGGTGGCTACGACGGGATT"}, "B14": {"name": "UGCGCAA (DNA:RNA)", "RNA": "B9 RNA with C25U, U26G, A28G, U31A", "DNA 1": "CAATCTGAATTCCGGTCTCCC", "DNA 2": "TGGTGGCTACGACGGGATT"}, "B15": {"name": "CGUACUU (DNA:RNA)", "RNA": "B9 RNA with U26G, C27U, A30U", "DNA 1": "CAATCTGAATTCCGGTCTCCC", "DNA 2": "TGGTGGCTACGACGGGATT"}, "B16": {"name": "CGACCAU (DNA:RNA)", "RNA": "B9 RNA with U26G, C27A, A28C", "DNA 1": "CAATCTGAATTCCGGTCTCCC", "DNA 2": "TGGTGGCTACGACGGGATT"}, "B17": {"name": "AACCAUU (DNA:RNA)", "RNA": "B9 RNA with C25A, U26A, A28C, C29A, A30U", "DNA 1": "CAATCTGAATTCCGGTCTCCC", "DNA 2": "TGGTGGCTACGACGGGATT"}, "B18": {"name": "CCAGUUC (DNA:RNA)", "RNA": "B9 RNA with U26C, C27A, A28G, C29U, A30U, U31C", "DNA 1": "CAATCTGAATTCCGGTCTCCC", "DNA 2": "TGGTGGCTACGACGGGATT"}, "B19": {"name": "UCAGGGG (DNA:RNA)", "RNA": "B1 RNA with G26C, U27A, U28G", "DNA 1": "CAATCTGAATTCCGGTCTCCC", "DNA 2": "TGGTGGCTACGACGGGATT"}, "B20": {"name": "AAUAACC (DNA:RNA)", "RNA": "B9 RNA with C25A, U26A, C27U, C29A, A30C, U31C", "DNA 1": "CAATCTGAATTCCGGTCTCCC", "DNA 2": "TGGTGGCTACGACGGGATT"}}, "note": "Positions count from the first letter of the chain named. Some of the results follow.", "data": [{"target": "T1, RBFOX1 RRM (Homo sapiens, UniProt Q9NWB1 109-208)", "T1 sequence": "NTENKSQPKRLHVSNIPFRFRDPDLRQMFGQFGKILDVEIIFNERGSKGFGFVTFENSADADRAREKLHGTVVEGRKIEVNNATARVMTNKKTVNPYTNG", "experiment": "EMSA; HiTS-Eq, 1 nM pool, 10 min; buffer printed only for the single-RNA assays: 10 mM Tris pH 7.5, 150 mM NaCl, 3.4 mM EDTA, 0.001% NP-40, 30 C", "details": "tags: His6 N-terminal (pET28a); label: 5' 32P", "procedure,_shortened": "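Purified wild-type or mutant RbFox RRM at increasing concentrations was equilibrated with 1 nM of 5′-radiolabelled RNA carrying 7 randomized nucleotides for 10 min in 50 µL. Unbound RNA was separated by 8% native PAGE and sequenced. Relative association constants came from read-count changes of each RNA species compared with the control reaction, normalised to the cognate motif.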", "values": [{"binder": "B1", "binding signal": "0.00877 KA relative to UGCAUGU"}, {"binder": "B2", "binding signal": "0.00868 KA relative to UGCAUGU"}, {"binder": "B3", "binding signal": "0.0115 KA relative to UGCAUGU"}, {"binder": "B4", "binding signal": "0.027 KA relative to UGCAUGU"}, {"binder": "B5", "binding signal": "0.697 KA relative to UGCAUGU"}, {"binder": "B6", "binding signal": "0.0019 KA relative to UGCAUGU"}, {"binder": "B7", "binding signal": "0.0207 KA relative to UGCAUGU"}, {"binder": "B8", "binding signal": "0.00469 KA relative to UGCAUGU"}, {"binder": "B9", "binding signal": "0.00243 KA relative to UGCAUGU"}, {"binder": "B10", "binding signal": "0.00795 KA relative to UGCAUGU"}, {"binder": "B11", "binding signal": "0.00429 KA relative to UGCAUGU"}, {"binder": "B12", "binding signal": "0.00126 KA relative to UGCAUGU"}, {"binder": "B13", "binding signal": "0.0117 KA relative to UGCAUGU"}, {"binder": "B14", "binding signal": "0.0152 KA relative to UGCAUGU"}, {"binder": "B15", "binding signal": "0.0053 KA relative to UGCAUGU"}, {"binder": "B16", "binding signal": "0.00205 KA relative to UGCAUGU"}, {"binder": "B17", "binding signal": "0.00138 KA relative to UGCAUGU"}, {"binder": "B18", "binding signal": "0.0137 KA relative to UGCAUGU"}, {"binder": "B19", "binding signal": "0.00686 KA relative to UGCAUGU"}, {"binder": "B20", "binding signal": "0.00049 KA relative to UGCAUGU"}]}]}
